{"source": "the supplement of paper PMC3334620", "note": "In all, about 33,000 sequences were measured (“E-score (-0.5 to 0.5)”: median about -0.01, highest 2% from about 0.26 on). The list shows a part of the results.", "data": [{"molecular_target": "Ste12 (UniProt P13574)", "test": "PBM E-score (8-mer binding enrichment) (E-score (-0.5 to 0.5)); higher = stronger / more preferred TF binding; most listed sequences are background and not binding sites", "conditions": "protein concentration: 200 nM; construct: GST-DNA-binding domain", "in_short": "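PURExpress in vitro transcription/translation supplied GST-tagged yeast transcription factors, either full-length or DNA-binding domain. Applied at about 100-200 nM to universal all-10-mer Agilent arrays double-stranded by primer extension, the bound protein was detected with fluorescent anti-GST. E-scores, modified Wilcoxon-Mann-Whitney statistics, were given by the Universal PBM Analysis Suite to ungapped eight-base words pooled with their reverse complements after masliner normalisation.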", "values": [{"sequence": "CGAAGCAG", "PBM E-score": -0.0736}, {"sequence": "TTCCTCAA", "PBM E-score": -0.00471}, {"sequence": "ACAGCTGG", "PBM E-score": -0.0214}, {"sequence": "ACCAAAGT", "PBM E-score": 0.00543}, {"sequence": "GTAAAAGA", "PBM E-score": 0.0116}, {"sequence": "CACTTTAA", "PBM E-score": 0.159}, {"sequence": "CGTGTACA", "PBM E-score": -0.0949}, {"sequence": "ATGGCGTG", "PBM E-score": -0.00074}, {"sequence": "AGATTCGC", "PBM E-score": -0.0107}, {"sequence": "ATACCACG", "PBM E-score": 0.0272}, {"sequence": "CACTGCAG", "PBM E-score": -0.103}, {"sequence": "CCTAGACG", "PBM E-score": -0.134}, {"sequence": "CTAATTTA", "PBM E-score": 0.157}, {"sequence": "GATTGTGC", "PBM E-score": -0.0156}, {"sequence": "CCTGCCGC", "PBM E-score": 0.0664}, {"sequence": "TCGGTAAA", "PBM E-score": 0.194}, {"sequence": "ACATCGCG", "PBM E-score": 0.111}, {"sequence": "TAAGTTAA", "PBM E-score": 0.0894}, {"sequence": "CGTCAACG", "PBM E-score": 0.0143}, {"sequence": "ACCAGCTC", "PBM E-score": -0.127}, {"sequence": "ATGCCCGG", "PBM E-score": -0.0194}, {"sequence": "AAAATCCT", "PBM E-score": 0.0166}, {"sequence": "CCTGGATA", "PBM E-score": -0.167}, {"sequence": "GATCGGCC", "PBM E-score": -0.119}, {"sequence": "GTATGCAC", "PBM E-score": -0.304}, {"sequence": "CACTTTTC", "PBM E-score": 0.209}, {"sequence": "CCGCCGCG", "PBM E-score": 0.156}, {"sequence": "ATCCTTTG", "PBM E-score": 0.0895}, {"sequence": "ACCTTTTA", "PBM E-score": -0.0665}, {"sequence": "ACAGGCCG", "PBM E-score": -0.142}, {"sequence": "AACACTCA", "PBM E-score": 0.14}, {"sequence": "AGGAGCCA", "PBM E-score": -0.311}, {"sequence": "TGGTGGAA", "PBM E-score": -0.014}, {"sequence": "GCAGTGTA", "PBM E-score": 0.0131}, {"sequence": "GAGTACTC", "PBM E-score": -0.0929}, {"sequence": "GCTGCCAC", "PBM E-score": 0.0519}, {"sequence": "AAGGACAT", "PBM E-score": -0.0394}, {"sequence": "GAAAAATA", "PBM E-score": 0.217}, {"sequence": "AGTCTCCG", "PBM E-score": 0.0185}, {"sequence": "ACTGACGA", "PBM E-score": -0.0103}, {"sequence": "AGATACTC", "PBM E-score": -0.0363}, {"sequence": "CTTGCAAA", "PBM E-score": 0.207}, {"sequence": "GAATTGTA", "PBM E-score": 0.0137}, {"sequence": "AGAAACAA", "PBM E-score": 0.26}, {"sequence": "CATAACCC", "PBM E-score": 0.0861}, {"sequence": "AACCACGA", "PBM E-score": 0.115}, {"sequence": "CAGATGCA", "PBM E-score": -0.252}, {"sequence": "GATTATGA", "PBM E-score": 0.045}, {"sequence": "CAAGTTCA", "PBM E-score": 0.117}, {"sequence": "CCGTTCGA", "PBM E-score": -0.014}, {"sequence": "CGCGGCTC", "PBM E-score": 0.0634}, {"sequence": "CTGCAGAA", "PBM E-score": 0.0476}, {"sequence": "GCTTCGGA", "PBM E-score": -0.12}, {"sequence": "AGCTGGTG", "PBM E-score": -0.0858}, {"sequence": "CATTTAGG", "PBM E-score": -0.205}, {"sequence": "CATGGCGG", "PBM E-score": -0.0453}, {"sequence": "ATACAGAA", "PBM E-score": 0.133}, {"sequence": "CCGTGGCG", "PBM E-score": 0.124}, {"sequence": "CCTTAAAG", "PBM E-score": -0.0939}, {"sequence": "AATTTTAC", "PBM E-score": 0.251}, {"sequence": "ACCACGGG", "PBM E-score": -0.202}, {"sequence": "GTGTTATA", "PBM E-score": 0.0175}, {"sequence": "CCAAAAAG", "PBM E-score": 0.158}, {"sequence": "ATAATCGC", "PBM E-score": 0.08}, {"sequence": "GTTGGGTA", "PBM E-score": -0.035}, {"sequence": "GGAGGCTA", "PBM E-score": 0.035}, {"sequence": "CCCAAGGC", "PBM E-score": -0.0771}, {"sequence": "ACCGGTTA", "PBM E-score": -0.0192}, {"sequence": "ACATTAAG", "PBM E-score": 0.084}, {"sequence": "CCCGCCGA", "PBM E-score": -0.0475}, {"sequence": "GACCAGCA", "PBM E-score": 0.0512}, {"sequence": "AACACCGT", "PBM E-score": 0.0855}, {"sequence": "CTCTCACC", "PBM E-score": -0.0199}, {"sequence": "ACAGCCCT", "PBM E-score": -0.18}, {"sequence": "CGACATCG", "PBM E-score": -0.126}, {"sequence": "GTTATCTA", "PBM E-score": 0.0186}, {"sequence": "TATTGACA", "PBM E-score": 0.0458}, {"sequence": "ACGGATAT", "PBM E-score": 0.0921}, {"sequence": "CCAGGTCC", "PBM E-score": -0.217}, {"sequence": "TCCTTGAA", "PBM E-score": 0.0246}, {"sequence": "AGGGTTCG", "PBM E-score": -0.247}, {"sequence": "GATATTCA", "PBM E-score": 0.0641}, {"sequence": "CTGCGGAA", "PBM E-score": -0.0498}, {"sequence": "AGCGCGAA", "PBM E-score": 0.0799}, {"sequence": "AATTAGCT", "PBM E-score": 0.191}, {"sequence": "GCCCCCCC", "PBM E-score": -0.0282}]}]}
